Out of some 360,000 compounds screened, about 25,000 (6.9%) were called active. The shares of active, inactive and inconclusive entries below differ from those in the screen. The call rests on the fitted dose curve; in most records, active means well fitted inhibition curve with a large enough effect; inconclusive means small, poorly fitted or top-dose-only effect; inactive means flat fitted curve, though single readings scatter. Potencies beside an inconclusive call are fits to weak or partial responses and may not hold up.
Target: Luciferin 4-monooxygenase (Photinus pyralis) (UniProt P08659)
Experiment: qHTS profiling assay for firefly luciferase inhibitor/activator using purifed enzyme and Km concentrations of substrates (counterscreen for miR-21 project); further: nearly all actives have a fitted effect of over 55% in size;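 on activity change, negative = inhibition: plate controls were vehicle for no effect and reference inhibitor for full effect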
Details: purified FLuc, luminescence inhibition; activity change, negative = inhibition: at 57.5 µM (top of the series)
Outline: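 Purified P. pyralis luciferase, 10 nM final, with Km-level 10 uM D-luciferin and 10 uM ATP in 50 mM Tris acetate pH 7.5, 10 mM Mg acetate, 0.01% Tween-20, 0.05% BSA; 6-point qHTS titration about 60 µM downward; luminescence read.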
Potency means the concentration at half of the fitted maximal effect; tags describe the fitted curve by direction and shape.

Chain of UniProt P08659 (P08659 whole entry, looked up): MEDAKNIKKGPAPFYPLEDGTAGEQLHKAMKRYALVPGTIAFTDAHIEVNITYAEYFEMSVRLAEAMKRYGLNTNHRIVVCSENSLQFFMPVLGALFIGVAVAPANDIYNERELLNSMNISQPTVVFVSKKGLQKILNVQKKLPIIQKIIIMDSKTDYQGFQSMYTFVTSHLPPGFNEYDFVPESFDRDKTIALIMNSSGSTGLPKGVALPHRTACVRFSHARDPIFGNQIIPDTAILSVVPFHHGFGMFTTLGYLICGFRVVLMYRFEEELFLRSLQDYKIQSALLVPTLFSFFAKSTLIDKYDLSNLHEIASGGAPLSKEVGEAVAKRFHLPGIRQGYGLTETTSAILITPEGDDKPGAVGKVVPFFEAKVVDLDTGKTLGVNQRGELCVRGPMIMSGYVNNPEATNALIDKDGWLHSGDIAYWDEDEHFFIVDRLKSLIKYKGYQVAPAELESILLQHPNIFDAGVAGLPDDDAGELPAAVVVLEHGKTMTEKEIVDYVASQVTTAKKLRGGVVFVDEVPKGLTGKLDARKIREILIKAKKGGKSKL

| Structure (SMILES) | Potency | activity change, negative = inhibition |
| --- | --- | --- |
| Cc1cccc(CCNC(=O)c2cc(S(=O)(=O)N3CCCC3)cn2C)c1 | inconclusive: 13.5 µM [inhibitor, partial curve, poor fit] | – |
| COc1ccc(-c2cn3c4c(sc3n2)CCCC4)cc1 | active: 0.213 µM | – |
| COc1cc(/C=N/Nc2snc(SC)c2C#N)cc(OC)c1OC | inconclusive: 1.35 µM [inhibitor, full curve] | – |
| COc1ccc(C(=O)COC(=O)c2cccc(NC(=O)c3ccc(OC)c(OC)c3)c2)cc1 | active: 0.601 µM | – |
| Cc1ccc(CN2C(=O)C(O)(c3c[nH]c4ccccc34)c3cc(Cl)ccc32)cc1 (centres undefined) | – | inactive: 5.12% |
| COCCNC(=S)N1CCC(NC(=O)c2ccco2)CC1 | – | inactive: 1.4% |
| COc1ccc2c(c1)c(CC(=O)O)c(C)n2C(=O)c1ccc(Cl)cc1 | inconclusive: 21.3 µM [inhibitor, partial curve] | – |
| CCc1nnc(NC(=O)c2nn(-c3ccccc3)nc2C)s1 | inconclusive: 26.9 µM [inhibitor, partial curve, poor fit] | – |
| CCN(CC)S(=O)(=O)c1ccc(C(=O)Nc2ccc3c(c2)OCCO3)cc1 | inconclusive: 30.1 µM [inhibitor, partial curve, poor fit] | – |
| O=C1COc2ccc(C(=O)CSc3ccc(Br)cc3)cc2N1 | – | inactive: -18.2% |
| Cc1ccn2c(=O)c(C(=O)NCCC3=CCCCC3)c(O)nc2c1 | – | inactive: 6.04% |
| CC(=O)c1ccc(NC(=O)CSCCO)cc1 | inconclusive: 23.9 µM [inhibitor, partial curve, poor fit] | – |
| COCCN(CCOC)C(=O)c1ccc(CSc2nc3ccccc3s2)cc1 | active: 16.9 µM | – |
| COCC1CCCN(C(=O)c2ccc3oc(CCCc4ccccc4)nc3c2)C1 (centres undefined) | inconclusive: 37.9 µM [inhibitor, partial curve, poor fit] | – |
| CCCc1nc([N+](=O)[O-])c(S(=O)(=O)c2ccccc2)n1CC(C)C | – | inactive: -1.55% |
| CCOCCOC(=O)C1=C(C)Nc2ccc(C)cc2S1 | inconclusive: 21.3 µM [inhibitor, single point] | – |
| O=C(NCCCN1CCN(c2ccc(F)cc2)CC1)Nc1ccc(Cl)cc1 | – | inactive: -15.5% |
| NC(=O)c1ccc(N2CCN(S(=O)(=O)c3ccccc3)CC2)c([N+](=O)[O-])c1 | – | inactive: 0.358% |
| N#Cc1c(NC(=O)c2cnccn2)sc2c1CCCC2 | active: 6.01 µM | – |
| CCOc1ccc(S(=O)(=O)N(CC(=O)NCCSc2ccccc2)c2ccccc2)cc1 | – | inactive: -4.83% |
| CCN(c1ccc(OC)cc1)S(=O)(=O)c1ccc2[nH]c(=O)ccc2c1 | active: 5.36 µM | – |
| N=C1C(c2nc3ccccc3s2)=C(O)CN1Cc1ccco1 | inconclusive: 3.38 µM [inhibitor, partial curve, poor fit] | – |
| O=C(Cn1c2ncccc2c(=O)n1-c1ccccc1)Nc1ccc(F)c(F)c1 | – | inactive: 3.53% |
| O=C(NCCc1nnc2ccccn12)c1cccs1 | inconclusive: 37.9 µM [inhibitor, partial curve, poor fit] | – |
| Cc1cc(N2CCCCC2)nc2ccc(NC(=O)/C=C/c3ccccc3Cl)cc12 | – | inactive: -2.87% |

| Structure (SMILES) | Potency | activity change, negative = inhibition |
| --- | --- | --- |
| CN=c1scc(C)n1/N=C/c1cc(Br)c(O)c(Br)c1 | active: 10.7 µM | – |
| CC(=O)Nc1cc(C(=O)OCC(=O)c2ccccc2)ccc1C | active: 19 µM | – |
| O=c1cc(-c2ccccc2F)nc(-c2ccccc2F)o1 | inconclusive: 15.1 µM [inhibitor, partial curve] | – |
| CN1c2ccccc2C(=O)C(=C2SCCCS2)S1(=O)=O | active: 19 µM | – |
| O=C(COC(=O)CCSc1ccc(Cl)cc1)NCc1ccco1 | inconclusive: 21.3 µM [inhibitor, partial curve, poor fit] | – |
| O=C(COc1ccccc1)Nc1nonc1NC(=O)COc1ccccc1 | active: 7.57 µM | – |
| O=C(Nc1ccc(C2CC2(Cl)Cl)cc1)c1ccccc1Br (centres undefined) | inconclusive: 26.9 µM [inhibitor, partial curve] | – |
| COc1ccc(NCc2nnc(SCC(=O)c3ccc(OC)cc3)o2)cc1 | inconclusive: 37.9 µM [inhibitor, single point] | – |
| CCc1ccc(Nc2ncnc3c2cnn3-c2cc(Cl)ccc2C)cc1 | inconclusive: 37.9 µM [inhibitor, partial curve, poor fit] | – |
| COc1ccc(C(CC(=O)c2ccccc2)S(=O)(=O)c2ccccc2)cc1 (centres undefined) | active: 0.478 µM | – |
| CCC(O)CNC(=O)CCc1nnc(C2(c3ccc(Cl)cc3)CCC2)o1 (centres undefined) | – | inactive: 2.48% |
| COc1ccc(OC)c(/C=C2\SC(=S)N(N3CCOCC3)C2=O)c1 | – | inactive: -18.1% |
| COc1ccc(OC)c(C(C)NC(=O)Cn2c(=O)cc(C)c3c(C)nn(-c4ccc(C)cc4)c32)c1 (centres undefined) | – | inactive: -5.33% |
| CC1=NN(c2ccccc2)C(=O)/C1=C/C=C/C=C/N(C)C | inconclusive: 23.9 µM [inhibitor, partial curve] | – |
| CC(C)CC(NC(N)=O)C(=O)NCc1ccccc1Cl (centres undefined) | inconclusive: 26.9 µM [inhibitor, partial curve, poor fit] | – |
| Clc1ccc2oc(-c3ccccc3)cc(=NCCCN3CCOCC3)c2c1 | inconclusive: 30.1 µM [inhibitor, partial curve] | – |
| COc1ccccc1-c1cc(C(=O)N2CCCCC2C)no1 (centres undefined) | inconclusive: 23.9 µM [inhibitor, partial curve, poor fit] | – |
| Cc1cc(C2=NNC(=NC3CC3)SC2)c(C)n1-c1ccccc1F | active: 0.213 µM | – |
| Nc1c(-c2nc(-c3cccs3)no2)nnn1-c1cccc(Cl)c1 | – | inactive: -3.09% |
| Cc1ccc(S(=O)(=O)Nc2cc(=O)[nH]c3c2CCC3)cc1 | inconclusive: 16.9 µM [inhibitor, partial curve] | – |
| CC1Cc2ccccc2N1C(=O)CSc1ccccc1 (centres undefined) | inconclusive: 19 µM [inhibitor, partial curve] | – |
| Cn1[nH]c(CSc2ccc(Cl)cc2)cc1=O | inconclusive: 30.1 µM [inhibitor, partial curve, poor fit] | – |
| O=c1oc2cc(OCCO)ccc2c2c1CCCC2 | – | inactive: -14.5% |
| COc1ccc(C(=O)CCNc2cccc(Cl)c2)cc1 | inconclusive: 3.01 µM [inhibitor, partial curve, poor fit] | – |
| C[C@H]1CCC(=O)N(CCSc2ccc(Br)cc2)CC1 | inconclusive: 14.1 µM [inhibitor, partial curve, poor fit] | – |

| Structure (SMILES) | Potency | activity change, negative = inhibition |
| --- | --- | --- |
| CC(=O)Nc1ccc(S(=O)(=O)/N=C2/NC(=O)/C(=C\c3ccco3)S2)cc1 | inconclusive: 10.7 µM [inhibitor, partial curve] | – |
| O=C(Cn1nnc(-c2ccc(N3CCOCC3)cc2)n1)N1CCOCC1 | active: 10.7 µM | – |
| Oc1ccc(/C=N/N2CCN(c3ccccn3)CC2)cc1 | inconclusive: 33.8 µM [inhibitor, single point] | – |
| O=c1[nH]cccc1-c1nc2ccccc2[nH]1 | inconclusive: 16.9 µM [inhibitor, partial curve] | – |
| CCCCc1ccc(NC(=O)CSC2=NN3CCCC(=O)N=C3S2)cc1 | inconclusive: 13.5 µM [inhibitor, partial curve] | – |
| Cc1ccc(CNC(=O)c2ccc3c(O)c(S(=O)(=O)c4ccccc4)c(=O)[nH]c3c2)cc1 | inconclusive: 13.5 µM [inhibitor, partial curve] | – |
| COC(=O)Cc1[nH]n(-c2nc3ccccc3s2)c(=O)c1C(C)=O | active: 9.53 µM | – |
| COCCN1CC(CNC(=O)c2cc(COc3ccccc3SC)on2)CC1=O (centres undefined) | – | inactive: -19.2% |
| COc1ccc(S(=O)(=O)NCC(=O)NCc2cc(=O)n(C)c(=O)n2C)cc1C | – | inactive: 1.67% |
| O=[N+]([O-])c1cc(C(F)(F)F)cc([N+](=O)[O-])c1NN=C1CCCCC1 | inconclusive: 26.9 µM [inhibitor, partial curve, poor fit] | – |
| Cc1sc(NC(=O)c2ccco2)nc1-c1ccccc1 | active: 2.13 µM | – |
| CCOC(=O)C1CCCN(Cc2cc(=O)oc3cc(C)c(C)cc23)C1 (centres undefined) | inconclusive: 26.9 µM [inhibitor, partial curve, poor fit] | – |
| CCC(CO)N=C1CC(C)(C)CC(=O)/C1=C(/O)CCCN1C(=O)c2ccccc2C1=O (centres undefined) | – | inactive: -0.998% |
| Cc1ccc(S(=O)(=O)N(CC(=O)Nc2cccnc2)c2ccccc2C)cc1 | – | inactive: -0.114% |
| CS(=O)(=O)N1CCN(c2nc3ccc(Cl)cc3s2)CC1 | inconclusive: 8.49 µM [inhibitor, partial curve, poor fit] | – |
| C=CCn1c(CSCc2ccc(Cl)cc2Cl)nnc1SCC(=O)Nc1ccc(C(=O)O)cc1 | inconclusive: 26.9 µM [inhibitor, single point] | – |
| COc1ccc(CNC(=O)CCS(=O)(=O)c2ccc3c(c2)oc(=O)n3C)cc1 | inactive | – |
| Cn1cnnc1SCC(=O)c1ccc2c(c1)CCCC2 | active: 19 µM | – |
| COc1ccc(C(=O)OCC(=O)c2ccc[nH]2)cc1 | active: 26.9 µM | – |
| C#CCOCCOCCOCCNc1nc(N2CCN(C(=O)[C@H](CCCCN)n3cc(C(N)CO)nn3)CC2)nc(N2CCN(C(=O)[C@H](CCC(=O)O)n3cc(C(N)[C@H](C)CC)nn3)CC2)n1 (some centres undefined) | – | inactive: -0.956% |
| Cc1ccc(N(Cc2cccs2)C(=O)c2ccc(Br)o2)cc1 | inconclusive: 15.1 µM [inhibitor, partial curve, poor fit] | – |
| O=C(Nc1nccs1)c1ccc(-c2cccc([N+](=O)[O-])c2)o1 | inconclusive: 2.69 µM [inhibitor, full curve] | – |
| Cc1c(NC(=O)COC(=O)COc2ccc(Nc3ccccc3)cc2)c(=O)n(-c2ccccc2)n1C | inconclusive: 30.1 µM [inhibitor, partial curve, poor fit] | – |
| Cc1ccccc1NC(=O)Cn1c(O)c(N=NC(=O)c2ccccc2O)c2ccccc21 | inconclusive: 6.75 µM [inhibitor, partial curve, poor fit] | – |

Source: PubChem BioAssay AID588342 (National Center for Advancing Translational Sciences (NCATS), 2011)
